Results as given in the supplement of paper PMC10126150.
Sequences with one replicate were seen in a single cluster, so their values are uncertain.

test system: ATP; assay: switch fluorescence ratio, 500 uM ATP over buffer (Cy3 cluster intensity, sum of 5 cycles each) (fold (ratio)); higher = stronger signal-on switching upon ATP binding; sequences stand for … in TCGTCGGCAGCGTCAGATGTGTATAAGAGACAGTTTTTTTTTTTTTTTTTTTTTTTTT…TC; settings: aptamer strand: ATP DNA aptamer (quencher-CACCTGGGGGAGTATTGCGGAGGAAGG + anchor), 100 nM annealed; ATP concentration: 500 uM; one replicate
Outline: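 Five buffer/ATP imaging cycles were run on Cy3-labelled switching-strand clusters on a modified Illumina MiSeq flow-cell, with NaOH stripping and re-annealing between cycles. In each cycle, clusters annealed to 100 nM quencher-labelled ATP aptamer were imaged in selection buffer, then after 15 min with 500 uM ATP at 22 °C. Per cluster, the fluorescence ratio is summed target-cycle over summed buffer-cycle Cy3 intensity, averaged per switch-domain sequence. Only clusters within 100-1000 RFU were kept.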
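Note: ATP exposure 15 min at 22 °C before imaging.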

Row | Sequence | switch fluorescence ratio
1 | AGGTCTAACT | 1
2 | AGGTCTGATA | 1.04
3 | AGGTGAAGTG | 0.92
4 | AGGTGATCGC | 0.963
5 | AGGTGATTGT | 1.02
6 | AGGTGCAAGT | 0.991
7 | AGGTGGTC | 0.928
8 | AGGTGTGTAC | 0.975
9 | AGGTTACTCG | 1.01
10 | AGGTTATATA | 1.02
11 | AGGTTCCAAG | 0.964
12 | AGGTTCCCAT | 0.991
13 | AGGTTCTGG | 0.969
14 | AGGTTGCATA | 0.987
15 | AGGTTGTG | 0.984
16 | AGGTTTCAGT | 1.01
17 | AGGTTTGAAG | 1.01
18 | AGGTTTTCAA | 0.998
19 | AGTAAAAA | 0.948
20 | AGTAAAATTC | 1.03
21 | AGTAAACCCG | 0.968
22 | AGTAACGGCC | 1
23 | AGTAACGTAG | 0.976
24 | AGTAACTACC | 1.09
25 | AGTAAGCTTT | 0.949
26 | AGTAAGTTAG | 1.05

Row | Sequence | switch fluorescence ratio
27 | AGTAAGTTTC | 0.949
28 | AGTAATTGCT | 1.01
29 | AGTACGAGCG | 0.996
30 | AGTACTAGCC | 1.01
31 | AGTACTGCTG | 0.952
32 | AGTAGAAGAA | 1.02
33 | AGTAGCGAGT | 1.01
34 | AGTAGCTATG | 0.96
35 | AGTAGGAACG | 0.985
36 | AGTAGGAACT | 0.971
37 | AGTAGGATGG | 0.991
38 | AGTAGTGTTC | 0.985
39 | AGTAGTTGAG | 0.982
40 | AGTATATTCT | 0.965
41 | AGTATCCAGC | 1.03
42 | AGTATCTTAT | 0.969
43 | AGTATGCAGA | 0.964
44 | AGTATTATG | 0.96
45 | AGTATTCCCG | 0.923
46 | AGTCAACCAG | 1.19
47 | AGTCACTCAG | 1.07
48 | AGTCAGAGTG | 0.985
49 | AGTCAGCAA | 4.79
50 | AGTCAGGTTT | 1.02
51 | AGTCAGTTAC | 1.08
52 | AGTCAGTTTC | 1.01

Row | Sequence | switch fluorescence ratio
53 | AGTCATGAGC | 0.992
54 | AGTCATGTAC | 1.12
55 | AGTCCAGATG | 1.05
56 | AGTCCAGCAC | 1.06
57 | AGTCCAGTCA | 0.985
58 | AGTCCATGGG | 0.978
59 | AGTCCCGGGC | 1
60 | AGTCCGGATC | 0.973
61 | AGTCCTCTGG | 1.08
62 | AGTCGAAGTA | 0.977
63 | AGTCGACCTG | 0.991
64 | AGTCGAGTGA | 0.957
65 | AGTCGATTTG | 0.972
66 | AGTCGCATA | 1.04
67 | AGTCGCCCGG | 1.11
68 | AGTCGGTATC | 0.965
69 | AGTCGGTTTA | 1.01
70 | AGTCTATACT | 1.09
71 | AGTCTATGA | 1
72 | AGTCTCCCAC | 1.1
73 | AGTCTCCCGG | 1.45
74 | AGTCTCTTGA | 1.03
75 | AGTCTGAGGC | 1.02
76 | AGTCTGCCAG | 0.991
77 | AGTCTGCTAA | 0.974
78 | AGTCTGTCCG | 0.993

Row | Sequence | switch fluorescence ratio
79 | AGTGAAATTT | 0.996
80 | AGTGAATGAG | 0.939
81 | AGTGACATGC | 1.09
82 | AGTGACCGAG | 0.994
83 | AGTGACGCTT | 1.05
84 | AGTGACGGGT | 1.05
85 | AGTGACGGT | 1.02
86 | AGTGAGCACC | 1.02
87 | AGTGAGCCAC | 1.05
88 | AGTGAGCGAC | 1
89 | AGTGAGGGTG | 0.999
90 | AGTGAGTGGA | 1
91 | AGTGAGTTTC | 1.01
92 | AGTGATGAGT | 0.963
93 | AGTGATGCTA | 0.999
94 | AGTGATGTTT | 0.983
95 | AGTGATTCTC | 1.01
96 | AGTGATTGTA | 0.967
97 | AGTGCAAGAA | 1.24
98 | AGTGCAATT | 1.04
99 | AGTGCACATT | 0.997
100 | AGTGCCGGTA | 0.955
101 | AGTGGAGATG | 0.973
102 | AGTGGATGAC | 1.04
103 | AGTGGCCCGG | 0.98
104 | AGTGGCGTGG | 1

Row | Sequence | switch fluorescence ratio
105 | AGTGGCTGCT | 0.953
106 | AGTGGGCGCC | 0.978
107 | AGTGGGCGG | 0.988
108 | AGTGGGGCAC | 0.994
109 | AGTGGTCAGG | 0.989
110 | AGTGGTTTTA | 0.984
111 | AGTGTAAATT | 0.993
112 | AGTGTACCAG | 1.02
113 | AGTGTAGGTA | 1.05
114 | AGTGTATCTA | 1.01
115 | AGTGTATTTT | 0.989
116 | AGTGTCTGGC | 1.02
117 | AGTGTGATC | 1.01
118 | AGTGTGGCA | 1.01
119 | AGTGTTAGTA | 1
120 | AGTGTTGTTC | 1.03
121 | AGTTACCAGT | 1.01
122 | AGTTACCTAC | 1.27
123 | AGTTAGCGCC | 1.08
124 | AGTTAGTC | 1.01
125 | AGTTAGTTG | 0.983
126 | AGTTATAGAA | 0.933
127 | AGTTATAGT | 0.986
128 | AGTTATAGTA | 0.999
129 | AGTTATTGGG | 0.97
130 | AGTTCACTCC | 1.01

Row | Sequence | switch fluorescence ratio
131 | AGTTCAGATA | 0.983
132 | AGTTCCGTGT | 1.04
133 | AGTTCGAGCG | 0.978
134 | AGTTCGTGG | 1.04
135 | AGTTCTAGCT | 0.974
136 | AGTTCTATTC | 0.972
137 | AGTTCTCCCG | 1.06
138 | AGTTCTCTTC | 1.02
139 | AGTTCTGCGC | 1.03
140 | AGTTCTTTCT | 1.02
141 | AGTTGAACTT | 0.994
142 | AGTTGAGCGG | 0.927
143 | AGTTGCATTG | 0.995
144 | AGTTGCTTG | 1.04
145 | AGTTGGTGGG | 0.969
146 | AGTTGTAGCT | 1.03
147 | AGTTTAAGGT | 1.03
148 | AGTTTAGTTG | 1.02
149 | AGTTTATGTA | 0.991
150 | AGTTTCATAA | 1.03
151 | AGTTTCGTGC | 1.02
152 | AGTTTGATTT | 1.02
153 | AGTTTGTAAC | 1.03
154 | AGTTTGTCAA | 1.04
155 | AGTTTTGCTT | 0.953
156 | ATAAAAAATG | 0.981

Row | Sequence | switch fluorescence ratio
157 | ATAAAATGA | 1.02
158 | ATAAAATGAC | 1.07
159 | ATAAAATTCA | 1.01
160 | ATAAACTCTG | 1.05
161 | ATAAACTTTG | 1.05
162 | ATAAAGGGGC | 0.984
163 | ATAAAGGTGT | 1.14
164 | ATAAAGGTTT | 1.03
165 | ATAAATCTCA | 1.02
166 | ATAAATGAGC | 1
167 | ATAAATTCGC | 0.946
168 | ATAAATTTG | 0.967
169 | ATAACACGTA | 1.21
170 | ATAACGGATT | 0.96
171 | ATAACGGTGT | 1.03
172 | ATAACTGAG | 1.07
173 | ATAACTGTCT | 0.99
174 | ATAACTTAGA | 0.999
175 | ATAAGAAGGC | 0.991
176 | ATAAGCCGAG | 0.982
177 | ATAAGCGTCT | 1.03
178 | ATAAGCTAAT | 0.983
179 | ATAAGCTAGC | 1.02
180 | ATAAGGGAT | 1.01
181 | ATAAGTTCGC | 0.968
182 | ATAATAAATT | 1.01

Row | Sequence | switch fluorescence ratio
183 | ATAATAATTC | 1.04
184 | ATAATACATT | 0.99
185 | ATAATACCGT | 1.01
186 | ATAATACGCA | 1.19
187 | ATAATACGG | 1
188 | ATAATATTT | 1.05
189 | ATAATGAGAT | 0.979
190 | ATAATTATAG | 0.978
191 | ATAATTGCCA | 0.981
192 | ATAATTGGAA | 0.992
193 | ATAATTTATG | 1.01
194 | ATACAAAATA | 1.03
195 | ATACAAGGCC | 0.976
196 | ATACAATTTT | 1.02
197 | ATACACCGCC | 1.28
198 | ATACACGGAT | 1.03
199 | ATACAGAATA | 1.06
200 | ATACAGGACG | 1.1
201 | ATACAGTAAC | 1.14
